The whole screen tested about 16,000 compounds, of which about 120 (0.75%) were called active. Roughly 4% stayed inconclusive and do not appear here. Calls come from the whole dose curve; as a rule, active = well fitted inhibition curve with a large enough effect; inconclusive = small, poorly fitted or top-dose-only effect; inactive = no such curve, though single readings can be large or run the other way. Some of the results follow.
Potency is the fitted concentration of half-maximal effect.

The target of this assay is Rap guanine nucleotide exchange factor 3 (Homo sapiens) (UniProt O95398). Kind of assay: Validation qHTS for antagonist of cAMP-regulated guanine nucleotide exchange factor 3 (EPAC1).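 For activity change, negative = inhibition: plate controls were DMSO for no effect and ATA control for full effect.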 Note: nearly all actives have a fitted effect of over 75% in size. The note with it: EPAC1 Rap1B-BODIPY-GDP exchange, fluorescence; series mostly up to 150 µM; activity change, negative = inhibition: at the top concentration. An outline of the steps: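 Nucleotide exchange followed as fluorescence loss when BODIPY-GDP leaves Rap1B (480 nm excitation, 540 nm emission), read at 5 min intervals over 30 min. Reaction: 100 nM EPAC1, 250 nM RAP1B-BODIPY-GDP, 50 uM GDP; ATA and DMSO define normalization.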
Sequence of UniProt O95398 (O95398 whole entry, looked up): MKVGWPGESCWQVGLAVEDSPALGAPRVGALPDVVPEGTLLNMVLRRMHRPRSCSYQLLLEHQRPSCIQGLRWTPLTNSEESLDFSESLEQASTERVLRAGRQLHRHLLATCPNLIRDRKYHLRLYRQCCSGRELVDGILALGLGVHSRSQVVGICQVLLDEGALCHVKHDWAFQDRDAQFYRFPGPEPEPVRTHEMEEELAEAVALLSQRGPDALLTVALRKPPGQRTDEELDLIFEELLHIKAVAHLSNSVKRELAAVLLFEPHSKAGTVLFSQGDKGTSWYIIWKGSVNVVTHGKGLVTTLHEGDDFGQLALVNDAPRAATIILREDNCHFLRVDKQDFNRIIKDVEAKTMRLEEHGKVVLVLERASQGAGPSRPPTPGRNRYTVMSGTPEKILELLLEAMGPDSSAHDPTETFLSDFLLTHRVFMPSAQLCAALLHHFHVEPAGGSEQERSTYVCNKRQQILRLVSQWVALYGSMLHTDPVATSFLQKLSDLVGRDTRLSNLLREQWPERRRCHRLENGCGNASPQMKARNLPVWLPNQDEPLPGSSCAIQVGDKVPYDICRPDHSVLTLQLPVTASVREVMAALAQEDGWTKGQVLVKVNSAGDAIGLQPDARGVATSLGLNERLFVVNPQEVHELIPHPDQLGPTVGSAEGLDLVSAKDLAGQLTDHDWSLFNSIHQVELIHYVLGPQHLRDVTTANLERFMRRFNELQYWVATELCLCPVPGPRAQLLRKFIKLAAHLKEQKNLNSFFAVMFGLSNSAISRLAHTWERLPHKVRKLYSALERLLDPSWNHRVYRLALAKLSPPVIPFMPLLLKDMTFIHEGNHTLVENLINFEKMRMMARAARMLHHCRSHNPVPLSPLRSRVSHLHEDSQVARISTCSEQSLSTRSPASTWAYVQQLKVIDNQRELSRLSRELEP
In general terms: Quantitative high-throughput screening tests each substance at several concentrations.
For `CNC(=O)c1cc(Oc2ccc(NC(=O)Nc3ccc(Cl)c(C(F)(F)F)c3)cc2)ccn1`, the “activity change, negative = inhibition” value was inactive: -8.93%.
Turning to `COc1ccc(C2CC(=O)c3c(O)cc(O[C@H]4OC(COC5OC(C)C(O)C(O)[C@@H]5O)C(O)C(O)C4O)cc3O2)cc1O` (stereo partly drawn), the “activity change, negative = inhibition” value was inactive: -9.86%.
As to `CN(C)C(=O)c1ccc(-c2ccc3ncnc(Nc4ccc(F)cc4)c3c2)cc1`, the “activity change, negative = inhibition” value was inactive: 0.359%.
In the case of `O=C(Nc1cccc(C(=O)Nc2ccc(S(=O)(=O)O)c3cc(S(=O)(=O)O)cc(S(=O)(=O)O)c23)c1)Nc1cccc(C(=O)Nc2ccc(S(=O)(=O)O)c3cc(S(=O)(=O)O)cc(S(=O)(=O)O)c23)c1`, the Potency was active: 25.1 µM.
On to `CC(=O)OC1CC[C@]2(C)C(CC[C@@]3(C)C2C(=O)C=C2C4C(C)C(C)CC[C@@]4(C(=O)O)CCC23C)C1(C)C` (stereo partly drawn), for which the “activity change, negative = inhibition” value was inactive: 16.6%.
As for `O=C(CN1C(=O)c2ccccc2C1=O)NCC1Cc2cccc(-c3ncccn3)c2O1` (stereo not drawn), the “activity change, negative = inhibition” value was inactive: 2.78%.
For the compound `Nc1ncnc2c1nc(Br)n2[C@@H]1O[C@H]2COP(=O)(O)O[C@@H]2[C@@H]1O`, the Potency is active: 2.82 µM.
With `Cn1nccc1C(=O)NCC1CCC2(CCN(Cc3c(O)ccc4ccccc34)CC2)O1` (stereo not drawn), the “activity change, negative = inhibition” value is inactive: 8.24%.
Regarding `C[C@]12C=CC(=O)C=C1CCC1C2C(=O)C[C@]2(C)C1CC[C@]2(O)C(=O)CO` (stereo partly drawn), the “activity change, negative = inhibition” value was inactive: 17.2%.
Same read-out and setting: next, `Cc1ccnc2c(Cl)cccc12`: inactive: 15.2%; `COc1ccc2c(c1)OC(C)CN(CCNC(=O)c1cc3cc(F)ccc3[nH]1)C2` (stereo not drawn): inactive: -9.54%; `CC(C)(C)c1ccc(C(=O)N2CCC3(CC2)CC3C(=O)NCCc2ccccn2)cc1` (stereo not drawn): inactive: -4.57%.
Regarding `CCNc1ncc2nc(-c3ccc(OC)cc3)c(=O)n(CCc3ccccc3)c2n1`, the “activity change, negative = inhibition” value is inactive: 15%.
As to `O=C1CC(c2ccc(O)cc2)Oc2cc(O)cc(O)c21` (stereo not drawn), the activity change, negative = inhibition entry was “inactive”.
`CN1CCN(c2ncc3nc(CCc4ccccc4)c(=O)n(CCC#N)c3n2)CC1`: the “activity change, negative = inhibition” value is inactive: 2.36%.
`O=C(c1cnccn1)N1CCC2(CCCN(C(c3ccccc3)c3ccccc3)C2)CC1`: the “activity change, negative = inhibition” value is inactive: 10.9%.
For the compound `Cc1cn([C@H]2C=C[C@@H](CO)O2)c(=O)[nH]c1=O`, the activity change, negative = inhibition result is “inactive”.
Turning to `CC(=O)N1CCC2(CCCN(c3ccccc3)C2)CC1`, the “activity change, negative = inhibition” value is inactive: 6.16%.
Turning to `CC[C@H](C)[C@@H]1NC(=O)[C@H](Cc2ccc(O)cc2)NC(=O)[C@@H](N)CSSC[C@@H](C(=O)N2CCC[C@H]2C(=O)N[C@@H](CC(C)C)C(=O)NCC(N)=O)NC(=O)[C@H](CC(N)=O)NC(=O)[C@H](CCC(N)=O)NC1=O`, the “activity change, negative = inhibition” value is inactive: 24.5%.
In the case of `CS(=O)(=O)N1CCC2(CCCN(c3ccncc3)C2)CC1`, the “activity change, negative = inhibition” value is inactive: -1.36%.
Still for that read-out and setting: next, `CC(=O)NS(=O)(=O)c1ccc(N)cc1`: “inactive”; `CCc1cccc(N(C)C(N)=Nc2cccc3ccccc23)c1`: “inactive”.
On to `Cc1noc(C)c1C(=O)N1CCC[C@@]2(CCN(c3cccc(-c4ccccc4)c3)C2)C1`, for which the “activity change, negative = inhibition” value was inactive: 11.6%.
